In this data set the test system is ATP. Briefly: switch fluorescence ratio, 500 uM ATP over buffer (Cy3 cluster intensity, sum of 5 cycles each) (fold (ratio)); higher = stronger signal-on switching upon ATP binding; sequences stand for … in TCGTCGGCAGCGTCAGATGTGTATAAGAGACAGTTTTTTTTTTTTTTTTTTTTTTTTT…TC. The note with it: aptamer strand: ATP DNA aptamer (quencher-CACCTGGGGGAGTATTGCGGAGGAAGG + anchor), 100 nM annealed; ATP concentration: 500 uM; one replicate. Summed up:
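Between each of five buffer/ATP cycles, the flow-cell was stripped with NaOH and re-annealed. Each cycle imaged Cy3-labelled switching-strand clusters, annealed to 100 nM quencher-labelled ATP aptamer on a modified Illumina MiSeq flow-cell, first in selection buffer and then after 15 min with 500 uM ATP at 22 °C. The fluorescence ratio is summed target-cycle over summed buffer-cycle Cy3 intensity per cluster, averaged per switch-domain sequence, with clusters outside 100-1000 RFU excluded.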

Sequences with one replicate were seen in a single cluster, so their values are uncertain.
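Also: ATP exposure 15 min at 22 °C before imaging.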

Consider CTGAGTCTGT, for which the switch fluorescence ratio amounted to 1.03. The value for ACCCATTGCG was 1.03.

As for TTTTCTGGGA, the switch fluorescence ratio was 0.958. To AAAATGCCGA belongs 1.03; to ACTCCCTTGC, 3.54.

GTTAATCATA: the switch fluorescence ratio was 0.979. As to CATGTGGGCT, the switch fluorescence ratio was 1.02. For GGAACTGGGA, the switch fluorescence ratio was found to be 0.994. The value for ATCCGGAAAG was 1.31. The value for TTACCTTGTG was 1.02. The value for CGAGTAACTG was 1.13. Consider TTTACTCTGA, for which the switch fluorescence ratio stood at 1.21. The value for TCAATTGCAT was 1.02; that for GGGAATCCAG was 0.976. To GAATCGGATT belongs 0.936; to TGGGCTCAGG, 1.22; to TTTTCGAGAA, 1.01. To TGATCGATGG belongs 1.01. In the case of AACGACTGTT, the switch fluorescence ratio was determined as 1.05. The value for AGATAAAGAT was 1.01.

Turning to ATGTTTAGGA, the switch fluorescence ratio came to 1.07. The value for AGGAGCAAGT was 1.21. To TACGTGGTGC belongs 1.13. The value for GGTTGCGATG was 0.973; that for TCATGAGAGC was 0.934; that for AGATCTAATA was 0.963. With GGCGTACCGG, the switch fluorescence ratio came to 1.02. To TTTACAAGGA belongs 1.02; to CTCTGAACGG, 0.982; to ATTGCCCTCA, 0.992. To GGTTCGGCAC belongs 1.02; to CAAGTGAAGG, 1.01. With CGGGTTCAGG, the switch fluorescence ratio was 1.01.

For the sequence GAGCATACAG, the switch fluorescence ratio was 1.1. The value for TTTCCTCCAG was 2.23; that for CCGGATGCCC was 1.07. The value for CGGTTATTCC was 1.08; that for GCCTTTGCGG was 1.02.

On to GTTCCTTCGT, for which the switch fluorescence ratio came out at 1.64. With CGGTGGCTAG, the switch fluorescence ratio worked out at 0.987. As to TCTATTACTG, the switch fluorescence ratio was found to be 0.938. To ACGGGAAAGG belongs 1.08. With CCTCACATCC, the switch fluorescence ratio was 2.63. The value for ATTAGAGGT was 0.956. The value for TCAAGGTTTT was 1.02. Take TGTGTCGTGC: the switch fluorescence ratio was 0.996. The value for AGAAAGGCAT was 0.975.

On to CGTGAGAGAT, for which the switch fluorescence ratio amounted to 0.981.

Take CGTGCCTTTT: the switch fluorescence ratio was found to be 1. The value for AGACATATAT was 1.85; that for TCTTATTTTC was 1.02. To GCCGTGTAGC belongs 1.05; to GTGGGCACTG, 0.959; to CAAGGGAGCC, 1.03. The value for ACGAAGGAT was 1.

For the sequence TTTCTTGC, the switch fluorescence ratio came out at 1.05.

With AGTACTAAGT, the switch fluorescence ratio is 1.02. On to TTTATGTGGC, for which the switch fluorescence ratio came to 1. As to GCGTCGTCAC, the switch fluorescence ratio worked out at 1.01.

As to AGAAGTGCT, the switch fluorescence ratio amounted to 1. To GATGGCCTT belongs 0.994; to ATATTGCCGA, 1.05; to CGGAGTCAGT, 1.59. The value for AAACGGAAGC was 1.05; that for AAGTACCTGA was 1.32; that for TTTACCTCGC was 1.27.

On to ACAGACATCG, for which the switch fluorescence ratio was determined as 1.04. To TTCCGGAAAC belongs 2.48; to TAGGTGCGGA, 1.04; to AAGTATTCAC, 1.07. To TAAAGTGTCC belongs 1.04. For the sequence GTTATTTGA, the switch fluorescence ratio is 0.998.

In the case of GACTATGGAT, the switch fluorescence ratio was 0.947. The value for ACCCAGAATT was 0.976. TCGACATTGC: the switch fluorescence ratio was determined as 1.19. The value for GGGTGAATTG was 0.997; that for AATAAAGCGA was 0.991; that for TTTGTCGACG was 0.953. The value for CGGAGTAGGT was 1.02; that for ATACGACTGC was 1.05; that for TCCATGCTG was 1.04.

In the case of TTTATTGAAG, the switch fluorescence ratio amounted to 1.01.

With TTAGAGCCGA, the switch fluorescence ratio was found to be 0.977. The value for ACCTATTGT was 1.04. The value for TGCAATAGCT was 1.14; that for GGCATTGAAT was 1. The value for AGATCGATTT was 1; that for CTCTAATTGG was 0.971. For the sequence CCTCGTATG, the switch fluorescence ratio worked out at 1.02. The value for GGGGAAGTA was 1.01. The value for TAGCACGGTG was 1.05. To GACTATGTAA belongs 1.02; to GAATGCTTGT, 1.01.

For the sequence AAGGCTAGAA, the switch fluorescence ratio amounted to 1.01.

Turning to AATTTTATT, the switch fluorescence ratio is 0.995. To AAAACCACCA belongs 1.05. The value for GCGGGGTATT was 1.04; that for TGATTAATTG was 0.996; that for TGGTTTACCT was 0.959. Consider AAGAATCATT, for which the switch fluorescence ratio came out at 0.964. The value for CATCTGTTGA was 0.992. To GGAATTAGCG belongs 0.973; to CCTCTCACCA, 1.28; to ATGCGTAAAT, 0.961. Turning to CTCCGGGATT, the switch fluorescence ratio is 5.95. To GGTAAGCAGG belongs 0.958; to CTGAGGTGCA, 1.08; to GAATGTGCTC, 0.952. To CAGCGAAGTT belongs 1.08; to CAGCTGCGAG, 1.06. The value for TCACCCAACG was 1.35; that for AGAGACAAGC was 1.06; that for TCATTATGAT was 1.01. Consider AGCGAGGCA, for which the switch fluorescence ratio is 1.02. On to ACCCACCTG, for which the switch fluorescence ratio came out at 1.25.

On to GAATTCAGCG, for which the switch fluorescence ratio amounted to 0.961. The value for CTTTGCTCAT was 1.02; that for ATCTGGCCGC was 1.09. The value for GACCTAAGGA was 1.06; that for TTATGCATGG was 0.977.

The values are drawn from the supplement of paper PMC10126150.
